From PubChem BioAssay AID2060352 (Molecular Pharmacology Branch, DTP, NCI, 2025)
A number of entries come with more than one value. The other results are left out here. There may be further records. The records of an entry are repeated measurements (runs, samples, wells, individuals or studies). Marks such as [2022-09] give the month of the run. Brackets with × give the number of equal values in this list.

Tested on: 616215-338-R-J1-PDC spheroid with HUVEC/MSC, viability
Test: Anticancer human tumor 616215-338-R-J1-PDC patient-derived colon adenocarcinoma cell line growth inhibition [TAK]
Conditions: for viability, T/C: stronger effect = lower value
Excerpt: Combinatorial screen of targeted agents with TAK-243 and ipatasertib in multi-cell type tumor spheroids
A high-throughput screen of multi-cell type tumor spheroids was designed to identify active combinations of targeted small molecules and TAK-243 or ipatasertib. Complex spheroids include a stromal component modeled by human endothelial cells (HUVEC) and fibroblasts modeled by human mesenchymal stem cells (MSCs). The concentration ranges selected for each drug and investigational agent were based upon clinically achievable concentrations if the clinical Cmax of the agent was known.
Compounds. The drugs and investigational agents: TAK-243 (785004), ipatasertib (767898), everolimus (733504), selumetinib (741078), bortezomib (756655), trametinib (758246), ixazomib (758254), vemurafenib (761431), dabrafenib (764134), sapanisertib (764658), alpelisib (765974), and copanlisib (816437), were obtained from the National Cancer Institute (NCI) Developmental Therapeutics Program Chemical Repository. The FDA-approved anticancer drug set is available from the NCI Developmental Therapeutics Program. […] The stock solutions were prepared in dimethyl sulfoxide (DMSO, Sigma-Aldrich, St. Louis, MO, cat. D2650) at 800-fold the tested concentration and stored at -70 degrees C prior to their use. All drugs and investigational agents were tested over a range starting from a high concentration at or near the clinical Cmax and decreasing in half-log increments. If the clinical Cmax for an agent had not been determined, the highest concentration tested was 10 microM.
NCI60 Cell Culture. NCI60 cell lines were obtained from the NCI Developmental Therapeutics Program Tumor Repository. For each lot of cells, the Repository performed Applied Biosystems AmpFLSTR Identifiler testing with PCR amplification to confirm consistency with the published Identifier STR profile for each cell line. Cells were kept in continuous culture for no more than 20 passages. The optimal seeding densities for each of the cell lines at each time point assessed were determined prior to performing the concentration response studies. Briefly, the NCI60 human tumor lines were grown as monolayers in RPMI 1640 medium supplemented with 10% FBS and 2 mmol/L L-glutamine.
An additional 2 lines were from the NCI60 cell line panel including melanomas, MALME-3M and SK-MEL-2. Pooled donor human umbilical vein endothelial cells (HUVEC, Lonza, cat. CC-2519) and human mesenchymal stem cells (hMSC, Lonza, cat. PT-2501) were purchased from Lonza (Walkersville, MD).
PDMR cell lines were grown in complete medium (DC medium): Dulbecco's modified Eagle's medium (DMEM)/F12 supplemented with 5% fetal bovine serum (FBS), 2 mM L-glutamine, 100 U/mL penicillin and 100 µg/ml streptomycin, 0.4 µg/ml hydrocortisone, 10 ng/ml epidermal growth factor (EGF) recombinant human protein, 24 µg/mL adenine, and 0.1 mg/mL primocin. During culture from frozen stock vials, PDMR cells were cultured in the same medium containing 10 µM Y-27632 (see Table 3). The PDCs were cultured in complete DMEM/F12 media without 10 microM Y-27632 dihydrochloride for at least two passages prior to the screen. The pooled donor HUVEC and hMSC were cultured in endothelial cell growth medium 2 (PromoCell, Heidelberg, Germany, cat. C-22011) and mesenchymal stem cell growth medium 2 (PromoCell, cat. C-28009), respectively. […]
For the pre-screen, cell seeding densities were determined from a titration spanning the range from 5,000 to 313 cells per well. […]
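Further: spheroids exposed to drugs for 7 days before readout.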

For CC(C)CC(NC(=O)C(Cc1ccccc1)NC(=O)c1cnccn1)B(O)O (stereo not given), the viability, T/C (compound alone 0.01 µM) was 91.3% [2020-02] and 0.26% [2020-03].

CC(C)NCC(C(=O)N1CCN(c2ncnc3c2C(C)CC3O)CC1)c1ccc(Cl)cc1 (stereo not given) was tested, and the viability, T/C (compound alone 0.3 µM) was 100, 104, 97.7, 108, 95.1% [2020-02] and 124%, 121% (3×), 127% [2020-03], the viability, T/C (compound alone 0.949 µM) was 109, 112, 110, 118, 114% [2020-02] and 120, 125, 141, 129% (2×) [2020-03] and the viability, T/C (compound alone 3 µM) was 81.8, 87.7, 78.6, 91.5, 96.7% [2020-02] and 71.4, 57.4, 90, 55.1, 80.1% [2020-03].

With CCCS(=O)(=O)Nc1ccc(F)c(C(=O)c2c[nH]c3ncc(-c4ccc(Cl)cc4)cc23)c1F the IC50 (compound alone) was > 100 µM and 8.01 µM.
